Results from patent US4215038A, “Peptides which inhibit gonadal function” (The Salk Institute for Biological Studies, priority 1978, dated 1980).
Part of at least one peptide drawing is inferred or uncertain, most often the ends. Non-standard residues stand in square brackets, D forms with d. Residues, ends and D or L forms follow the SMILES beside them. *: point of attachment. d(pGlu) = O=C1CC[C@H](C(=O)O)N1; βAla = NCCC(=O)O; For = O=C*

Tested on: female rats
Assay: Prevention of ovulation, peptide injected at noon on day of proestrous
Format: in vivo, rat
Details: ten female rats

| SMILES | Number of Rats Having Ovulation (Level of Use 750 Micrograms) | Number of Rats Having Ovulation (Level of Use 500 Micrograms) | other results |
| --- | --- | --- | --- |
| CC(C)C[C@H](NC(=O)[C@@H](Cc1c[nH]c2ccccc12)NC(=O)[C@H](Cc1ccc(O)cc1)NC(=O)[C@H](CO)NC(=O)[C@@H](Cc1c[nH]c2ccccc12)NC(=O)[C@@H](Cc1ccccc1)NC(=O)[C@H](N)Cc1c[nH]c2ccccc12)C(=O)N[C@@H](CCCNC(=N)N)C(=O)N1CCC[C@H]1C(=O)NCC(N)=O [compound 8] (H-[dW][dF][dW]SY[dW]LRPG-NH2) | 9 |  |  |
| CC(C)C[C@H](NC(=O)[C@@H](Cc1c[nH]c2ccccc12)NC(=O)[C@H](Cc1ccc(O)cc1)NC(=O)[C@H](CO)NC(=O)[C@@H](Cc1c[nH]c2ccccc12)NC(=O)[C@@H](Cc1ccccc1)NC(=O)[C@H](N)CCCNC(=N)N)C(=O)N[C@@H](CCCNC(=N)N)C(=O)N1CCC[C@H]1C(=O)NCC(N)=O [compound 9] (H-[dR][dF][dW]SY[dW]LRPG-NH2) | 5 |  |  |
| CC(C)C[C@@H](N)C(=O)N[C@H](Cc1ccccc1)C(=O)N[C@H](Cc1c[nH]c2ccccc12)C(=O)N[C@@H](CO)C(=O)N[C@@H](Cc1ccc(O)cc1)C(=O)N[C@H](Cc1c[nH]c2ccccc12)C(=O)N[C@@H](CC(C)C)C(=O)N[C@@H](CCCNC(=N)N)C(=O)N1CCC[C@H]1C(=O)NCC(N)=O [compound 10] (H-[dL][dF][dW]SY[dW]LRPG-NH2) |  | 9 |  |
| CC(C)C[C@H](NC(=O)[C@@H](Cc1c[nH]c2ccccc12)NC(=O)[C@H](Cc1ccc(O)cc1)NC(=O)[C@H](CO)NC(=O)[C@@H](Cc1c[nH]c2ccccc12)NC(=O)[C@@H](Cc1ccccc1)NC(=O)[C@H](N)Cc1c[nH]cn1)C(=O)N[C@@H](CCCNC(=N)N)C(=O)N1CCC[C@H]1C(=O)NCC(N)=O [compound 11] (H-[dH][dF][dW]SY[dW]LRPG-NH2) | 3 |  |  |
| CC(C)C[C@H](NC(=O)[C@@H](Cc1c[nH]c2ccccc12)NC(=O)[C@H](Cc1ccc(O)cc1)NC(=O)[C@H](CO)NC(=O)[C@@H](Cc1c[nH]c2ccccc12)NC(=O)[C@@H](Cc1ccccc1)NC(=O)[C@H]1CCC(=O)N1)C(=O)N[C@@H](CCCNC(=N)N)C(=O)N1CCC[C@H]1C(=O)NCC(N)=O [compound 12] ([d(pGlu)][dF][dW]SY[dW]LRPG-NH2) |  |  | Number of Rats Having Ovulation (Level of Use 150 Micrograms): 0 |
| CC(C)C[C@H](NC(=O)[C@@H](Cc1c[nH]c2ccccc12)NC(=O)[C@H](Cc1ccc(O)cc1)NC(=O)[C@H](CO)NC(=O)[C@@H](Cc1c[nH]c2ccccc12)NC(=O)[C@@H](Cc1ccccc1)NC(=O)[C@H]1CCCN1)C(=O)N[C@@H](CCCNC(=N)N)C(=O)N1CCC[C@H]1C(=O)NCC(N)=O [compound 13] (H-[dP][dF][dW]SY[dW]LRPG-NH2) |  |  | Number of Rats Having Ovulation (Level of Use 100 Micrograms): 4; Number of Rats Having Ovulation (Level of Use 250 Micrograms): 0 |
| CC(C)C[C@H](NC(=O)[C@@H](Cc1c[nH]c2ccccc12)NC(=O)[C@H](Cc1ccc(O)cc1)NC(=O)[C@H](CO)NC(=O)[C@@H](Cc1c[nH]c2ccccc12)NC(=O)[C@@H](Cc1ccccc1)NC(=O)[C@H]1CCCN1C=O)C(=O)N[C@@H](CCCNC(=N)N)C(=O)N1CCC[C@H]1C(=O)NCC(N)=O [compound 14] (For-[dP][dF][dW]SY[dW]LRPG-NH2) |  | 4 |  |
| CC(C)C[C@H](NC(=O)[C@@H](Cc1c[nH]c2ccccc12)NC(=O)[C@H](Cc1ccc(O)cc1)NC(=O)[C@H](CO)NC(=O)[C@@H](Cc1c[nH]c2ccccc12)NC(=O)[C@@H](Cc1ccccc1)NC(=O)CCN)C(=O)N[C@@H](CCCNC(=N)N)C(=O)N1CCC[C@H]1C(=O)NCC(N)=O [compound 17] (H-[βAla][dF][dW]SY[dW]LRPG-NH2) | 1 |  |  |
| CC(C)C[C@H](NC(=O)[C@@H](Cc1c[nH]c2ccccc12)NC(=O)[C@H](Cc1ccc(O)cc1)NC(=O)[C@H](CO)NC(=O)[C@@H](Cc1c[nH]c2ccccc12)NC(=O)[C@@H](Cc1c[nH]c2ccccc12)NC(=O)[C@H]1CCC(=O)N1)C(=O)N[C@@H](CCCNC(=N)N)C(=O)N1CCC[C@H]1C(=O)NCC(N)=O [compound 18] ([d(pGlu)][dW][dW]SY[dW]LRPG-NH2) |  | 4 |  |
